The whole screen tested about 43,000 compounds, of which about 200 (0.47%) were called active. Not shown: some 12% with an inconclusive outcome. Calls come from the whole dose curve; as a rule, active = well fitted cell-killing curve with a large enough effect; inconclusive = small, poorly fitted or top-dose-only effect, or effect the other way; inactive = flat fitted curve, though single readings scatter. This is one part of the list.
experiment: Cell viability qHTS assay in S16 Pmp22-F2sN cells; conditions: S16 Pmp22-F2sN Schwann cells (luciferase reporters placed in the Pmp22 gene) viability, CellTiter-Glo, 24 h; series mostly up to 57.5 µM; activity change, negative = cytotoxicity: at the top concentration; note: nearly all actives have a fitted effect of over 65% in size
How it was run: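 Luminescence from CellTiter-Glo, read by CCD camera after a 15 min room-temperature incubation, served as the viability signal. Reporter Schwann cells (S16 Pmp22-F2sN) had been treated with pin-transferred compounds for 24 h at 37C.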
% is set by controls: 0 for no effect and ±100 for the full control effect; potency is the fitted concentration of half-maximal effect.

SMILES | activity change, negative = cytotoxicity | Potency
COc1cc(C(=O)Nc2sc3c(c2C(N)=O)CCC(C)C3)cc(OC)c1OC (configuration not stated) | inactive: 17.3% | 
CCn1c(=O)c(=O)n(CC)c2cc(N3CCCCC3)c(NC(=O)c3ccc(OC)c(OC)c3)cc21 | inactive: -18.5% | 
COc1ccc(CCNC(=O)CSc2cc(=O)n(C)c3ccccc23)cc1OC | inactive: 3% | 
CCc1ccc(S(=O)(=O)NCc2cccn2Cc2cccc(C)c2)cc1 | inactive: -22.1% | 
CN1CCN(C(CNC(=O)C(=O)Nc2ccccc2C#N)c2ccc3c(c2)OCO3)CC1 (configuration not stated) | inactive: 3.37% | 
CC1=C(C(=O)Nc2cc(Cl)ccc2C)C(c2ccccc2F)n2ncnc2N1 (configuration not stated) | inactive: 1.95% | 
Cc1cccc(N2CCN(c3ncnc4onc(C)c34)CC2)c1C | inactive: 8.34% | 
COC(=O)c1cccc(Nc2c(-c3ccc(SC)cc3)nc3nc[nH]n23)c1 | inactive: -10.1% | 
CCc1ccc(C2N=C(N)Nc3nc4ccccc4n32)cc1 (configuration not stated) | inactive: -15.5% | 
COc1ccc(CCNC(=O)Cn2c(=O)c3sccc3n(CC(=O)Nc3cccc(C(F)(F)F)c3)c2=O)cc1OC | inactive: -3.7% | 
O=C(NCc1cccc(Cl)c1)c1cnc(N2CCCCC2)c2ccccc12 | inactive: -2.11% | 
Cc1cccc(S(=O)(=O)c2cn(Cc3ccc(F)cc3)c3cc(N4CCCCC4)c(F)cc3c2=O)c1 | inactive: 1.46% | 
O=C(CCCCCn1c(=O)[nH]c2ccccc2c1=O)NCCc1ccccc1 | inactive: 1.82% | 
COc1ccc(Cl)cc1NC(=O)CN(c1cccc(C)c1C)S(C)(=O)=O | inactive: 9.76% | 
CCCN1CCN(c2ncc3c(n2)CCN(Cc2ccc(OC)c(OC)c2OC)C3)CC1 | inactive: 12.3% | 
Cc1ccc(NC(=O)Cn2nc(-c3ccc(F)cc3)c3cnc4ccc(C)cc4c32)cc1 | inactive: 14.6% | 
COc1ccccc1-c1noc(-c2ccc(N(C)Cc3ccccc3)c([N+](=O)[O-])c2)n1 | inactive: 9.65% | 
CCCCN(CC)C(=O)CCn1c(=O)c2cccn2c2cccnc21 | inactive: 21.8% | 
Cc1ccc(NC(=O)CN(C)S(=O)(=O)c2ccc3c(c2)CCC(=O)N3)c(C)c1 | inactive: -3.8% | 
CCCCNC(=O)CN1C(=O)CSc2ccc(S(=O)(=O)N3CCC(C)CC3)cc21 | inactive: 11.4% | 
CC(=O)c1cccc(N(C(=O)Cn2nnc3ccccc32)C(C(=O)NCc2ccccc2)c2ccc(F)cc2)c1 (configuration not stated) | inactive: 1.51% | 
COc1cccc(NC(=O)CN(Cc2ccccc2)S(=O)(=O)c2ccc3nc(C)sc3c2)c1 | inactive: -27.6% | 
CCOC(=O)c1c(S(=O)(=O)NCC(=O)Nc2ccc(Cl)c(C(F)(F)F)c2)c(C)n(C)c1C | inactive: -22.3% | 
CCCCc1nn2c(=O)cc(COC(=O)c3cccc(NC(=O)c4cccc(C)c4)c3)nc2s1 | inactive: 3.06% | 
CCOc1ccc(CNCc2c(C(=O)O)c(C)n(Cc3ccc(F)cc3Cl)c2C)cc1 | inactive: -4.73% | 

SMILES | activity change, negative = cytotoxicity | Potency
CCN1CCN(C(=O)c2ccc3c(c2)N(Cc2ccccc2)C(=O)c2ccccc2S3=O)CC1 (configuration not stated) | inactive: 10.5% | 
Cc1nn(CCCC(=O)NCc2cccc(F)c2)c(=O)c2nn(-c3ccccc3)c(C)c12 | inactive: -0.335% | 
COc1ccc(OC)c(-c2nc(C(N)=O)c3c(n2)n(-c2ccc4c(c2)OCO4)c(=O)n3C)c1 | inactive: 20.5% | 
COc1ccc(Cl)cc1C(=O)Nc1ccc2oc(-c3ccc(C(C)(C)C)cc3)nc2c1 | inactive: 13.9% | 
CCCn1ccc2c(OCC(=O)NCc3ccc(F)cc3)cccc2c1=O | inactive: -3.67% | 
Cc1ccc(-c2nc(S(=O)(=O)c3ccc(Cl)cc3)c(N3CCCCC3)o2)cc1 | inactive: 1.67% | 
COc1ccc(CNC(=O)Cn2nnc(-c3ccccc3F)n2)cc1 | inactive: -4.11% | 
CCc1cc2c(cc3c(=O)n(CC(=O)N4CCCCC4)nc(CC)n32)s1 | inactive: 18.6% | 
CC(C)c1nnc(NC(=O)c2nc(SCc3ccc(F)cc3)ncc2Cl)s1 | inactive: 7.97% | 
CCCSc1ncc(Cl)c(C(=O)Nc2sc3c(c2C(=O)NCC)CCCC3)n1 | inactive: 14.5% | 
Cc1cc2n(n1)CCCN2C(=O)Nc1ccc(Cl)cc1 | inactive: -23.8% | 
CCCSC1=NC2(CCN(C(=O)NC3CCCCC3)CC2)N=C1c1ccccc1 | inactive: 3.15% | 
COc1cc(Cl)ccc1OC(=O)c1cn(-c2ccccc2OC)c(=O)c2ccccc12 | inactive: 5.73% | 
CC1C(=O)Nc2ccc(S(=O)(=O)Nc3ccccc3Br)cc2NC1=O (configuration not stated) | inactive: -4.38% | 
CC(C)CCNC(=O)c1ccc(Cn2c(SCC(=O)NC(C)C)nc3ccccc3c2=O)cc1 | inactive: 8.57% | 
Cc1ccc(Cl)cc1N1CCN(C(=O)c2cccn2-c2nnc(N3CCCCC3)s2)CC1 | inactive: 5.26% | 
Cc1ccc(C)c(S(=O)(=O)c2nnn3c2nc(NCc2cccs2)c2sccc23)c1 | inactive: -14.1% | 
COc1ccc2c(c1)c1c(c(=O)n(-c3ccccc3)c(=O)n1CC(=O)Nc1ccc(F)cc1)n2C | inactive: 2.02% | 
CCc1ccc(-n2c(SCC(=O)NC(C)CC)nc3n[nH]c(C)c3c2=N)cc1 (configuration not stated) | inactive: -17.2% | 
COc1ccc(N2CC(NC(=O)c3ccc4c(c3)OCO4)CC2=O)cc1OC (configuration not stated) | inactive: 7.83% | 
Cc1c(-c2ccccc2)c(=O)oc2c(CN3CCN(C)CC3)c(O)ccc12 | inactive: 11.6% | 
Cc1ccc2nc(Cl)c3cc(C(=O)NCCCN4CCC(C)CC4)sc3c2c1 | inactive: 15.1% | 
CCC(CC)C(=O)Nc1ccc(C(=O)OCc2cc(=O)n3nc(C4CC4)sc3n2)cc1 | inactive: -6.23% | 
CCC(=O)Nc1ccc(C)cc1-c1nc2ccccc2n(C(C)C(=O)Nc2ccccc2CC)c1=O (configuration not stated) | inactive: -6.8% | 
CCOc1ccc(-c2noc(CSc3nnc(-c4ccccc4)n3-c3ccccc3)n2)cc1 | inactive: 5.28% | 

SMILES | activity change, negative = cytotoxicity | Potency
O=C(CCn1c(=O)c2cccn2c2cccnc21)NCc1ccccc1Br | inactive: 17% | 
Cc1ccc(N(C)S(=O)(=O)c2ccc3c(c2)C(C)(C)C(=O)N3C)cc1C | inactive: -25.2% | 
O=C(NCc1ccccc1Cl)c1cccn1-c1nnc(N2CCCCC2)s1 | inactive: 0.0258% | 
CCC(C(=O)N1CCN(c2cc(Cl)ccc2C)CC1)n1nc(C)c2sc3ccccc3c2c1=O (configuration not stated) | inactive: 13.1% | 
CCN(CC)CCCNC(=O)CCCn1c(=O)[nH]c2ccc(Br)cc2c1=O | inactive: 1.61% | 
CC(=O)c1ccccc1NS(=O)(=O)c1cc2c(cc1C)NC(=O)CO2 | inactive: 1.65% | 
Cc1ccc(-n2nc(C(=O)N3CCN(c4ccccc4F)CC3)c3c4ccccc4n(C)c3c2=O)cc1 | inactive: 9.08% | 
COc1cccc(CNC(=O)CN2N=C(c3ccc(C)cc3)CCC2=O)c1 | inactive: 6.23% | 
CC(C)CC(=O)NCC(c1ccc2c(c1)OCO2)N1CCN(c2ccccc2F)CC1 (configuration not stated) | inactive: 0.246% | 
CCOC(=O)c1ccc(NC(=O)Nc2ccc3snnc3c2)cc1 | inactive: 0.413% | 
Cc1ccccc1N(C)C(=O)c1noc2c1COc1ccccc1-2 | inactive: -8.63% | 
Cc1cccc(-c2nc(SCC(=O)NCC3CCCO3)c3c(=O)n(C)c(=O)n(C)c3n2)c1 (configuration not stated) | inactive: -6.65% | 
Cc1c(Cl)cccc1NC(=O)Cn1nc(C(F)(F)F)c2c1CCC2 | inactive: 18.4% | 
Cc1cc(C)c(NC(=O)Cn2c(=O)n(CCc3ccccc3)c(=O)c3ccccc32)c(C)c1 | inactive: 12.5% | 
COc1ccc(OC)c(CNC(=O)c2ccccc2NC(=O)c2nsc3ccccc23)c1 | inactive: -0.155% | 
CCOc1ccccc1C(=O)N1CCN(CCc2ccccn2)CC1 | inactive: 3% | 
Cc1ccc(C2=Nc3ccccc3N(CC(=O)Nc3ccccc3C)C(=O)C2)cc1C | inactive: -29.6% | 
Cc1ccc(CNC(=O)NC2COc3ccccc3C2)cc1 (configuration not stated) | inactive: 6.39% | 
CC1=C(C(=O)Nc2ccccc2)C(c2cccc(O)c2)n2nc(-c3ccccc3Cl)nc2N1 (configuration not stated) | inactive: 5.28% | 
Cn1cc(S(=O)(=O)N2CCCCCC2)cc1C(=O)NCc1ccc(Cl)cc1 | inactive: 3.45% | 
Cc1onc(-c2ccccc2Cl)c1C(=O)Oc1ccc(Br)cc1 | inactive: 12.5% | 
COc1ccc(CCNC(=O)c2c(C)oc3nc(C)nc(N4CCOCC4)c23)cc1OC | inactive: 3.24% | 
Cc1cc(C)n(-c2nc3ccccc3nc2Nc2cccc(C(=O)NCCc3ccccc3)c2)n1 | inactive: -3.15% | 
Cc1ccc(NC(=O)C2CCCN(S(=O)(=O)c3cccc4cccnc34)C2)c(Br)c1 (configuration not stated) | inactive: -20.8% | 
CCOC(=O)c1ccc(NC(=O)C2Cc3ccccc3C(=O)O2)cc1 (configuration not stated) | inactive: 6.55% | 

SMILES | activity change, negative = cytotoxicity | Potency
Brc1ccc(CNCCCSc2nnnn2-c2ccccc2)cc1 | inactive: -0.757% | 
Cc1cccc(-c2noc(CNC(=O)c3ccco3)n2)c1 | inactive: -0.722% | 
Cc1ccc(-n2nnnc2CNC(=O)c2ccc(F)cc2)cc1C | inactive: -2.3% | 
CC(=O)N(Cc1cccnc1)c1nc2ccc(F)cc2s1 | inactive: -16.5% | 
COc1cccc2cc(-c3cn4c(n3)sc3cc(F)ccc34)c(=O)oc12 | inactive: -0.347% | 
COc1ccc(C(=O)NCC(c2cccs2)S(=O)(=O)c2ccc(F)c(C)c2)cc1 (configuration not stated) | inactive: 0.664% | 
CC(=O)Nc1ccc(C)cc1-c1nc2ccccc2n(CC(=O)c2ccc(Cl)cc2)c1=O | inactive: 7.32% | 
Cc1ccc(CNC(=O)c2c(-c3ccccc3Cl)noc2C)o1 | inactive: -2.13% | 
Cc1coc2cc3oc(=O)c(CC(=O)NCc4cccc(Cl)c4)c(C)c3cc12 | inactive: 1.95% | 
Cc1cccc(NC(=O)COc2ccc(-c3nn(C)c(=O)c4ccccc34)cc2)c1 | inactive: 25.9% | 
COC(=O)c1ccccc1NC(=O)CSc1nc(=O)cc(N)n1-c1ccccc1 | inactive: 0.624% | 
CCOc1ccc(NC(=O)CSc2nnc(-c3ccc(OCC)cc3)o2)cc1 | inactive: -3.15% | 
Cc1ccc(NC(=O)Cn2c(=O)n(Cc3nc(-c4ccccc4)no3)c(=O)c3ccccc32)cc1C | inactive: -2.23% | 
COc1cc(OC)c(NC(=O)CN2CCCN(Cc3ccccc3C)S2(=O)=O)cc1Cl | inactive: 0.206% | 
CCc1ccc(S(=O)(=O)c2cn(Cc3ccccc3F)c3cc(OC)c(OC)cc3c2=O)cc1 | inactive: -18.3% | 
Cc1ccccc1C(=O)Nc1c(C)nc2ccccn2c1=O | inactive: 10.6% | 
Cn1c(=O)oc2cc(S(=O)(=O)N3CCCC(C(=O)NCCc4ccccc4)C3)ccc21 (configuration not stated) | inactive: 9.18% | 
CC(=O)c1ccc(NS(=O)(=O)c2ccc3[nH]c4c(c3c2)CCCC4)cc1 | inactive: 0.117% | 
Cc1cc(S(=O)(=O)NCC(c2ccco2)S(=O)(=O)c2cccs2)ccc1F (configuration not stated) |  | active: 10 µM
Cc1cccc(NC(=O)CS(=O)(=O)c2cccc3nsnc23)c1 | inactive: -0.0382% | 
Cc1ccc(CCNC(=O)c2c3c(nc4ccccc24)C(=O)N(C2CCCCC2)C3)cc1 | inactive: -1.04% | 
Cc1cccc(CNC(=O)c2ccc3nc(Cc4ccccc4)oc3c2)c1 | inactive: -6.09% | 

From PubChem BioAssay AID1508642 (National Center for Advancing Translational Sciences (NCATS), 2021)
